Test results from PubChem BioAssay AID624417 (National Center for Advancing Translational Sciences (NCATS), 2012).
About 6,400 (1.6%) of roughly 410,000 compounds were called active. This list was built around the results that the source calls inconclusive (neither active nor inactive); the mix of calls is not that of the screen. Calls follow the shape of the dose curve; as a rule, active = well fitted inhibition curve with a large enough effect; inconclusive = small, poorly fitted or top-dose-only effect; inactive = no such curve, though single readings can be large or run the other way. Where the call is inconclusive, the potency comes from a doubtful curve fit.

Target: Glucagon-like peptide 1 receptor (Homo sapiens) (UniProt P43220)
Sequence of UniProt P43220 (P43220 whole entry, looked up): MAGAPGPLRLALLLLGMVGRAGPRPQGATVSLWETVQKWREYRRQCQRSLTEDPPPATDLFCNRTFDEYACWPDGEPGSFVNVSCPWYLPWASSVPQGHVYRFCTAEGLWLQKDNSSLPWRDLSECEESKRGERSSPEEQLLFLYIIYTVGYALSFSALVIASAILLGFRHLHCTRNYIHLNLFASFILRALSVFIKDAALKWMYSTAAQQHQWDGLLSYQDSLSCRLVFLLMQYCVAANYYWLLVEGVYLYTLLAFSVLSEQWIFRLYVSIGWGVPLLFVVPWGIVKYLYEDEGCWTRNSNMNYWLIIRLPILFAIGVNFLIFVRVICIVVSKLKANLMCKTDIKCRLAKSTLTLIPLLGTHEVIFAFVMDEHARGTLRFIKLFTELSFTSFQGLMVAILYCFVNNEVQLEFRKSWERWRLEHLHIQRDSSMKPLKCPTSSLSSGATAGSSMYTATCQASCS
Assay: qHTS of GLP-1 Receptor Inverse Agonists (Inhibition Mode); also: nearly all actives have a fitted effect of over 55% in size
Settings: HEK293 GLP-1R CRE-luciferase, luminescence, 24 h, GLP-1R form is constitutively active; activity change, negative = inhibition: at 38.3 µM (top of the series) unless noted
Summary of the method: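 GLP-1R inverse agonism mode: basal reporter luminescence in engineered HEK293 cells measured after one day of compound exposure at 37 deg C, with a 12 min room-temperature detection step.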
% is scaled to controls: 0 for no effect and ±100 for the full control effect; potency is read from the fitted curve at half-maximal effect; tags tell the direction and shape of the fitted curve.

Activity change, negative = inhibition, inconclusive:
CC(C)(C)SCCNC(=O)c1ccc(CN2CCc3ccccc3C2)cc1 -59.6% [inhibitor]

Activity change, negative = inhibition, inactive:
Cc1noc2ncnc(Nc3ccc(F)cc3)c12 8.43%
Cc1ccccc1CNC(=O)C(=O)NCC(c1ccco1)S(=O)(=O)c1ccc(F)cc1 (configuration not stated) -25.9%
O=C(NCCN1CCC(n2c(=O)[nH]c3ccccc32)CC1)c1ccc(C(F)(F)F)cc1C(F)(F)F -27.4%
CCCc1nc2c(sc3nc4c(cc32)COC(C)(C)C4)c(=O)n1Cc1ccco1 0%
CSc1ccccc1NC(=O)C1C2CCC(C2)C1C(=O)O (configuration not stated) -7.24%
COc1ccccc1C(=O)NCC(=O)N/N=C/c1cc(Br)ccc1OC(=O)/C=C\c1ccco1 -29.7%
CC(=O)CSc1nc(-c2ccccc2)[nH]c1S(=O)(=O)c1ccc(C)cc1 13.6%
Cc1ccc2c(=O)cc(C(=O)Nc3sc4c(c3C(=O)NCc3ccco3)CCCC4)oc2c1C 1.64%
COc1cc(C(=O)NNC(=O)C2CC2)cc(OC)c1OC 4.44%
COC(=O)c1ccc(Cn2c(=O)cc(C)c3c(C)nn(C)c32)cc1 4.6%
S=c1[nH]nc(-c2ccco2)n1/N=C/c1ccc(Cl)cc1 -20.2%
CCOC(=O)CC(NC(=O)c1cc2cccc(OC)c2oc1=O)c1ccc(OC)cc1 (configuration not stated) 67.8%
COc1cc(O)cc(O)c1C(=O)/C=C/c1ccccc1 -20.6%
O=C(Nc1ccccc1)c1ccc2nc(-c3ccco3)c(-c3ccco3)nc2c1 0%
N#Cc1cnn2cc(-c3ncc(C(F)(F)F)cc3Cl)cnc12 1.33%
O=C(CSc1nc2ccccc2n1CC(=O)Nc1ccc(F)cc1F)Nc1ccc(F)cc1 -27.8%
O=C(NC(=S)Nc1ccc(CN2CCOCC2)cc1)c1cccc([N+](=O)[O-])c1 1.39%
CCc1ccccc1Nc1nn2c(=O)c3ccc(C(=O)NCCc4ccccc4)cc3nc2s1 -2.97%
COc1ccc(NC(=O)c2ccco2)c([N+](=O)[O-])c1 0%
Cc1c(Cl)cccc1NC(=O)CN1C(=O)c2ccccc2Sc2ncccc21 9.8%

Potency, inconclusive:
CN(C)c1ccc(-c2ccnc3c2CC(C)(C(=O)NCc2ccccc2)O3)cc1 (configuration not stated) 2.82 µM [inhibitor, full curve]
CC1CN(c2oc(COc3ccc(Cl)cc3Cl)nc2C#N)CC(C)O1 (configuration not stated) 10 µM [inhibitor, partial curve, poor fit]
CCn1c(C(=O)NCCCc2ccccc2)cc2sccc21 11.2 µM [inhibitor, partial curve, poor fit]
CC1CCCC(NC(=O)c2cc(S(=O)(=O)N3CCOCC3)ccc2F)C1C (configuration not stated) 5.01 µM [inhibitor, partial curve]
Cc1cccc(CN2CCc3c(OCC(=O)N4CCCc5ccccc54)cccc3C2=O)c1 31.6 µM [inhibitor, single point]
CCNC(=S)N/N=C/c1cn(Cc2ccc(F)cc2)c2ccccc12 28.2 µM [inhibitor, single point]
CC1CCc2[nH]c3ccc(C(=O)N(C)CC(=O)Nc4ccc(F)cc4)cc3c2C1 (configuration not stated) 11.2 µM [inhibitor, partial curve, poor fit]
O=C(Cn1cnc2c(nnn2Cc2ccc(F)cc2)c1=O)NCc1ccc(F)cc1 8.91 µM [inhibitor, partial curve, poor fit]
CCc1cc(C(=O)N2CCCC(N3CCN(c4cccc(C(F)(F)F)c4)CC3)C2)n(C)n1 (configuration not stated) 11.2 µM [inhibitor, single point]
COc1cccc(/C=C2/SC(=S)N(CCCC(=O)Nc3ccc(O)cc3)C2=O)c1 5.62 µM [inhibitor, full curve, poor fit]
COc1ccc(C[C@@H]2CN3C(=NC[C@@H]3C)N2CCNC(=O)c2ccc(C)c(Br)c2)cc1 28.2 µM [inhibitor, single point]
O=C(Nc1ccc2ccccc2c1)N1CCN(c2ncccc2C(F)(F)F)CC1 12.6 µM [inhibitor, single point]
O=C(N/C(=C/c1cccc(Br)c1)C(=O)N1CCCCC1)c1ccco1 28.2 µM [inhibitor, single point]
O=C(c1cccc(S(=O)(=O)N2CCN(c3ccc(F)cc3)CC2)c1)N1CCCC1 25.1 µM [inhibitor, single point]
CCc1ccc(C(C)NC(=S)NC2CCCCC2)cc1 (configuration not stated) 12.6 µM [inhibitor, partial curve, poor fit]
O=C(CCc1[nH]c2ccccc2c1Sc1ccccc1)N(CCO)CCO 14.1 µM [inhibitor, single point]
Cc1nn(C)c2c1c(-c1ccccc1)cc(=O)n2Cc1ccccc1F 28.2 µM [inhibitor, single point]
Cc1nc2sc(-c3ccccc3)cc2c(=O)n1N 2.51 µM [inhibitor, full curve, poor fit]
COc1ccc(/C=C/C(O)=C2/C(=O)N(C)C3(C)CC2c2ccccc2O3)cc1 (configuration not stated) 1.26 µM [inhibitor, full curve]
O=C(c1ccc2c(c1)OCO2)C1CCCN(C(=O)c2cnn(Cc3ccccc3)c2)C1 (configuration not stated) 28.2 µM [inhibitor, single point]
COc1ccc(Br)cc1Cn1nnc(C(=O)Nc2ccc3c(c2)OCCO3)c1N 20 µM [inhibitor, partial curve, poor fit]
CC1CCC2(CC1)NC(=O)N(CC(=O)N1CCc3ccccc3C1)C2=O (configuration not stated) 28.2 µM [inhibitor, single point]
Cc1cccc(C)c1Nc1c(-c2ccsc2)nc2ncccn12 12.6 µM [inhibitor, partial curve, poor fit]
Cc1cc(C)cc(NC2=NC3(CCCCC3)N=C(N)N2)c1 1.78 µM [inhibitor, full curve, poor fit]
CC(CC12CC3CC(CC(C3)C1)C2)NCc1ccccc1O (configuration not stated) 7.94 µM [inhibitor, partial curve, poor fit]
N#C/C(=C/c1ccc(N2CCCCC2)cc1)c1cccc(F)c1 17.8 µM [inhibitor, single point]
CC(C)(C)C(=O)N1c2ccccc2CCc2ccccc21 28.2 µM [inhibitor, single point]
CCOC(=O)c1c(NC(=O)C(C)S(=O)(=O)c2cn(CC)c3ccccc23)sc2c1CCCC2 (configuration not stated) 14.1 µM [inhibitor, single point]
Cc1ccc2nc(-c3cccc(Br)c3)c(Cc3ccccc3)n2c1 14.1 µM [inhibitor, single point]
CC(C)c1ccc(C(=O)N2CCCN(C(=O)c3ccc(C(C)C)cc3)CC2)cc1 8.91 µM [inhibitor, partial curve, poor fit]
Cc1ccc2c(CNCc3cccs3)c(C(=O)O)n(Cc3ccc(F)cc3)c2c1 11.2 µM [inhibitor, partial curve, poor fit]
CCOC(=O)C1(Cc2ccccc2C(F)(F)F)CCN(CC(O)CO)CC1 (configuration not stated) 14.1 µM [inhibitor, partial curve, poor fit]
O=C(c1cc(-c2ccc(Br)cc2)n[nH]1)N1CCN(C(=O)c2ccccc2Br)CC1 28.2 µM [inhibitor, single point]
Cc1c(Cl)c([N+](=O)[O-])nn1CCCC(=O)Nc1cccc(Cl)c1 28.2 µM [inhibitor, single point]
COc1ccc(-c2cc3nc(-c4ccccc4)cc(N4CCN(C(=O)c5ccccc5)CC4)n3n2)cc1 14.1 µM [inhibitor, partial curve, poor fit]
Nc1cc2c(cc1Br)-c1ccccc1C2=NO 12.6 µM [inhibitor, single point]
Cc1ccc([N+](=O)[O-])cc1NC(=O)Nc1ccc(S(N)(=O)=O)cc1 10 µM [inhibitor, partial curve, poor fit]
Oc1ccccc1-c1csc(-c2ccccc2)n1 10 µM [inhibitor, partial curve, poor fit]
CCOC(=O)C1CCN(CC(C)(C)NS(=O)(=O)c2ccc(C)cc2)CC1 35.5 µM [inhibitor, partial curve, poor fit]
O=[N+]([O-])c1ccc(Cl)c(CN2CCCCCC2)c1 1.26 µM [inhibitor, partial curve, poor fit]
O=C(Nc1ccccc1Cc1ccccc1)c1ccccc1F 3.98 µM [inhibitor, partial curve]
Cc1ccc(NC(=O)c2ccc3c(c2)CCN3S(C)(=O)=O)cc1C 7.08 µM [inhibitor, partial curve, poor fit]
Cc1ccc(CNC(=O)c2ccc(C)c(S(=O)(=O)N3CCCCC3)c2)cc1 10 µM [inhibitor, partial curve, poor fit]
Cc1ccc(Cc2c(C3CCCCC3)nc3ccc(C)cn23)cc1 10 µM [inhibitor, partial curve, poor fit]

Potency, active:
Cn1nc(-c2ccccc2)c(CSc2cccc(Cl)c2)c1Cl 10 µM
COc1ccc(-c2csc(C(O)c3ccc(F)c(F)c3)n2)cc1 (configuration not stated) 11.2 µM
